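Following 48 hours of exposure in 96-well plates, responses at five concentrations were used to interpolate endpoints linearly. Here, GI50 denotes the concentration required for 50% inhibition of growth.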 The source made the active and inactive calls. No stated cut-off is given here; in the data, active = GI50 up to about 1.1 µM and inactive = higher.

Here are results for 80 compounds from ChEMBL document CHEMBL1201862, “PubChem BioAssay data set” (2004).

The assay concerns NCI-H322M. The assay can be described thus: NCI-60 cell line screen, 48 h.
Regarding `O=C1c2ccccc2C(=O)c2c(OCC3CO3)ccc(OCC3CO3)c21` (stereo not given), the GI50 is inactive: 8.73 µM.

On to `O=C(c1ccccc1)c1cccc(C(=O)c2ccccc2)c1`, for which the GI50 was inactive: > 100 µM.

For `NC(=O)c1ncn(C2OC(CO)C(O)C2O)c1O` (stereo not given), the GI50 is inactive: > 100 µM.

Take `CC(C)Cn1cnc2c(SCc3ccccn3)nc(N)nc21`: the GI50 was inactive: > 100 µM.

In the case of `O=C(/C=C/c1ccccc1)c1cc(C(=O)/C=C/c2ccccc2)c(O)cc1O`, the GI50 is inactive: > 100 µM.

For the compound `Cc1c(C)c2c(c(N)c1C#N)C(=O)N(Nc1ccccc1)C2=O`, the GI50 is active: 0.122 µM.

As to `COc1ccccc1C1c2cc3c(cc2OC(O)(CO)C1C(=O)O)OCO3.COc1ccccc1C1c2cc3c(cc2OC2(O)COC(=O)C12)OCO3` (stereo not given), the GI50 is inactive: > 100 µM.

For `Cc1cc(N(CCC#N)S(C)(=O)=O)ccc1C=O`, the GI50 was inactive: > 100 µM.

`NC(=O)C(c1ccccc1)N1OC2C(=O)N(Cc3ccccc3)C(=O)C2C1c1cccc(Oc2ccc(Cl)cc2)c1` (stereo not given): the GI50 is inactive: 41.3 µM.

Take `COC(=O)CCC(=O)NC1C2CC3CC(C2)CC1C3` (stereo not given): the GI50 was inactive: > 100 µM.

Consider `O=C1NC(=O)C(CCC(=O)c2cccc3ccccc23)C(=O)N1`, for which the GI50 was inactive: > 100 µM.

For the compound `C[C@H](CO)C1=CC(C#C[Si](C)(C)C)N(C(=O)Oc2ccccc2)c2ccccc21` (stereo not given in full), the GI50 was inactive: 13.8 µM.

`CNC(=S)NC1CCCCC1NC(=S)NC` (stereo not given): the GI50 was inactive: > 100 µM.

As to `COC(=O)c1c(O)ccc2c1c1cc3ccccc3c(O)c1n2Cc1ccccc1Cl`, the GI50 was inactive: 30.5 µM.

For the compound `O=C(NNC(=S)NCc1ccccc1)c1csc(NC(=S)NC2CCCCC2)n1`, the GI50 was inactive: 39.6 µM.

On to `CCOC(=O)/C(C(=O)Nc1cccc(Cl)c1)=C(/N)N1CCOCC1`, for which the GI50 was inactive: > 100 µM.

Turning to `COC(=O)CCC1(O)C=CC(=O)C=C1`, the GI50 is inactive: > 100 µM.

For `COc1ccc(Br)c(N/N=C2\CCCNC2=O)c1`, the GI50 is inactive: > 100 µM.

For `Cc1cnc2c(c1)C(=O)N(c1ccc(Br)cc1)S2(=O)=O`, the GI50 was inactive: > 100 µM.

On to `CCN(CC(O)COc1ccc2c(c1)[n+]([O-])nc(N)[n+]2[O-])C(C)=O` (stereo not given), for which the GI50 is inactive: > 100 µM.

As to `Nc1nc(N)c2c(-c3ccccc3)ccnc2n1`, the GI50 is inactive: 68.5 µM.

As for `O=C(O)CN1CCNCCNCC1`, the GI50 is inactive: > 100 µM.

Turning to `COc1cc(/C=N/N=C2NCCN2)ccc1O`, the GI50 was inactive: > 100 µM.

On to `CCCCCCCCCC[C@@H](O)[C@@H]1CC[C@H]([C@H]2CC[C@@H]([C@@H](O)CCCCCCCCCC[C@H]3CC(CC(C)=O)C(=O)O3)O2)O1` (stereo not given in full), for which the GI50 is inactive: 17.4 µM.

Turning to `COc1cc(OC)c(/C=C/c2cnc3ccccc3n2)c(OC)c1`, the GI50 is inactive: > 10 µM.

As to `O=C1C(Cl)=C(Nc2ccc(OC(F)(F)F)cc2)C(=O)c2c(O)ccc(O)c21`, the GI50 was active: 0.912 µM.

Regarding `CCCCC[C@H](O)[C@H](C)C=C1SCCCS1`, the GI50 was inactive: > 100 µM.

Take `O=c1cc(-c2ccccc2)[nH]c2c(F)ccc(F)c12`: the GI50 was inactive: 68.2 µM.

`N#CC1=CNc2sccc2S1(=O)=O`: the GI50 is inactive: > 100 µM.

In the case of `CC(=O)NNc1nc(C)c(C(/C=C/c2ccc(Cl)cc2)=N\NS(=O)(=O)c2ccc(C)cc2)s1`, the GI50 was inactive: > 100 µM.

As for `CC(C)(C)c1ccc2c(c1)CNCCNCc1cc(C(C)(C)C)ccc1OCC1(CO2)COc2ccc(C(C)(C)C)cc2CNCCNCc2cc(C(C)(C)C)ccc2OC1`, the GI50 is inactive: 1.75 µM.

As for `CN(C)/C=N/C1CCC(C(C)(C)C)CC1` (stereo not given), the GI50 was inactive: 30 µM.

`O=C1CSC2(CCN(CCCN3c4ccccc4Sc4ccc(Cl)cc43)CC2)N1`: the GI50 was inactive: 12.4 µM.

In the case of `O=C(Cc1nc(-c2ccccc2)cc(=O)n1-c1ccccc1Cl)c1ccncc1`, the GI50 was inactive: > 100 µM.

As to `Cn1c(C(C)(C)OC(=O)Oc2ccccc2)cnc1[N+](=O)[O-]`, the GI50 was inactive: 68.4 µM.

Take `CS(=O)(=O)N1CC(CCl)c2ccc(NCCN)cc21` (stereo not given): the GI50 was inactive: 40.8 µM.

As to `O=c1ccccc2cccc(O)c12`, the GI50 is inactive: > 100 µM.

On to `NC(CCC(=O)O)C(=O)N1CCN(c2nc(N3CCCC3)c3nc(Cl)c(NCc4ccccc4)nc3n2)CC1` (stereo not given), for which the GI50 is inactive: 15.8 µM.

On to `COC(=O)C1=C(OC(=O)/C(=C/c2ccccc2)c2ccc(Cl)cc2)C(C(=O)OC)[C@@]2(O)[C@@H](C(=O)OC)[C@H](C)C[C@@H]1[C@@H]2C(=O)OC` (stereo not given in full), for which the GI50 was inactive: > 100 µM.

`CCOC(=O)c1c(OCC)[nH]c(=O)c(C(c2cccs2)c2c(O)c(C(=O)OCC)c(OCC)[nH]c2=O)c1O`: the GI50 was inactive: 14.4 µM.

For the compound `CCc1nnc(S)n1/N=C\c1ccc(-c2ccccc2[N+](=O)[O-])o1`, the GI50 is inactive: > 100 µM.

In the case of `O=[N+]([O-])c1ccc(C(Cl)C(Cl)c2ccc(C(Cl)C(Cl)c3ccc([N+](=O)[O-])cc3[N+](=O)[O-])cc2)c([N+](=O)[O-])c1` (stereo not given), the GI50 is inactive: 27 µM.

For the compound `COC(=O)C1=COc2c(n(C)c3ccccc23)-c2ccccc21`, the GI50 was inactive: > 100 µM.

Turning to `COc1cc(Nc2cnc3cc(C(F)(F)F)ccc3n2)cc(OC)c1OC`, the GI50 was inactive: > 100 µM.

Take `CN(C)c1ccc(C=C2C(=O)NC(=S)NC2=O)c2ccccc12`: the GI50 was inactive: > 100 µM.

`COc1cc2c(cc1OCCCCN1CCN(CCCCOc3cc4c(cc3OC)C(=O)N3CCC[C@H]3C=N4)CC1)N=C[C@@H]1CCCN1C2=O`: the GI50 was active: 0.132 µM.

With `Nc1c(-c2ccccc2[N+](=O)[O-])nc2ccccn12`, the GI50 was inactive: > 100 µM.

For `N=C(NCc1ccccc1)N/N=C\c1ccnc2ccccc12`, the GI50 is inactive: 15.1 µM.

For `COc1cc2c(cc1O)C(C)Cc1cc3c(cc1N(C)CC2)OCO3` (stereo not given), the GI50 is inactive: 7.26 µM.

As to `CN(/C(=N\O)c1ccccc1)c1ccccc1`, the GI50 was inactive: 75.7 µM.

For the compound `COc1ccc2oc3c(ccc[n+]3C)c(=O)c2c1`, the GI50 was inactive: > 100 µM.

With `O=C1C(Cl)C(c2ccccc2O)N1n1cnc2ccccc2c1=O` (stereo not given), the GI50 is inactive: 58.3 µM.

Take `Cc1ccc(S(=O)(=O)Nc2cccc(C)c2C)cc1`: the GI50 was inactive: > 100 µM.

For `CC1(C)CC(=O)C(CC(C(=O)C(=O)Nc2cc(C(F)(F)F)ccc2Cl)C(=O)c2ccco2)C(=O)C1` (stereo not given), the GI50 was inactive: > 100 µM.

Turning to `CC(=O)c1cc(C)n2c1CS[C@@H]2c1ccccc1`, the GI50 is inactive: 92.7 µM.

On to `CC[C@@H]1/C=C/C=C/C[C@H](C)[C@@H](O)[C@](C)(O)C(=O)[C@H](C)[C@@H](O)[C@H](C)C(=O)[C@H](C)[C@@H](O)[C@H](C)/C=C/C(=O)O[C@H]2[C@@H](C)[C@@H](CC1)O[C@]1(O[C@H](CC(C)O)[C@H](C)CC1=O)[C@@H]2C` (stereo not given in full), for which the GI50 was inactive: 6.56 µM.

Take `C/C=N\n1c(C)n[nH]c1=O`: the GI50 is inactive: > 100 µM.

For the compound `CCOC(=O)CCc1c(C)c2c(OC)cc(OC)cc2oc1=O`, the GI50 was inactive: > 100 µM.

On to `CCOC(=O)C(C)(C)Oc1ccc(/C=C/C(=O)c2ccc(Cl)cc2)cc1`, for which the GI50 is inactive: 47.2 µM.

As for `CS/C(=N/C(=O)c1ccccc1Cl)SCCS/C(=N\C(=O)c1ccccc1Cl)SC`, the GI50 is inactive: > 100 µM.

`C[C@]12CC[C@H]3[C@@H](CCC4=C[C@@H](OC5OCC(OC6OC(CO)C(O)C(O)C6O)C(O)C5O)CC[C@@]43C=O)[C@@]1(O)CCC2C1=CC(=O)OC1` (stereo not given in full): the GI50 was active: 0.875 µM.

For the compound `C=C=C(CC(CC(=C)Br)(C(=O)OC)C(=O)OC)S(=O)(=O)c1ccccc1`, the GI50 is inactive: 12.7 µM.

Take `CC(C)=CCC/C(C)=C/COC(C)(C)C1=CCC(C)CC1.CC(C)=CCC/C(C)=C/COC1CC(C)CCC1=C(C)C` (stereo not given): the GI50 is inactive: > 100 µM.

Turning to `OCCNCCOc1ccc(/C(=C(/Cl)c2ccccc2)c2ccccc2)cc1`, the GI50 was inactive: 12.4 µM.

In the case of `C/C(=N\NS(=O)(=O)c1ccccc1)c1ccc(Cl)c(Cl)c1`, the GI50 is inactive: > 100 µM.

As to `CCOc1ccccc1NC(=O)CCC(=O)NN`, the GI50 was inactive: > 100 µM.

For the compound `CC(C)(C)c1cc(C(O)(C(F)(F)F)C(F)(F)F)c2c(c1)C(C(F)(F)F)(C(F)(F)F)OC(C)(C(C)(C)C)N2` (stereo not given), the GI50 is inactive: 4.35 µM.

Take `CCOC(=O)/C=C(/C=C\COC1CCCCO1)c1ccccc1` (stereo not given): the GI50 was inactive: 67.1 µM.

For `COC(=O)c1c(OC(C)=O)ccc2c1c1c(n2C)C(=O)c2ccccc2C1=O`, the GI50 is inactive: 23.6 µM.

Regarding `COc1ccc(C2S/C(=C\c3cccc(OC)c3)C(=O)N2NC(=O)Cc2ccccc2)cc1` (stereo not given), the GI50 is inactive: > 100 µM.

With `O=C(O)c1nc(-c2ccc(Cl)c(Cl)c2)nc2ccc(Cl)cc12`, the GI50 is inactive: > 100 µM.

Regarding `CCCCc1ccc(Nc2nc3ncnc-3c[nH]2)cc1`, the GI50 is inactive: > 100 µM.

Turning to `Cc1ncc([N+](=O)[O-])n1CCNC(=O)CCCn1cnc([N+](=O)[O-])n1`, the GI50 is inactive: > 100 µM.

`OCc1ccccc1O[C@H]1O[C@H](CO)[C@@H](O)[C@H](O)[C@H]1O`: the GI50 was inactive: > 100 µM.

`CC1CC[C@@]2(OC1)OC1CC3C4CCC5C[C@@H](OC6OC(CO)C(OC7OC(CO)C(O)C(OC8OC(CO)C(O)C(OC9OC(CO)C(O)C(O)C9O)C8O)C7OC7OC(CO)C(O)C(O)C7O)C(O)C6O)[C@H](O)C[C@]5(C)C4CC[C@]3(C)C1[C@@H]2C` (stereo not given in full): the GI50 was inactive: > 80.5 µM.

As to `C/C(=N\Nc1nc2ccccc2o1)c1cc2ccccc2cn1`, the GI50 is active: < 0.0228 µM.

As for `O=C1/C(=C/c2ccccc2)CCCc2ccccc21`, the GI50 was inactive: 20.7 µM.

As for `c1ccc2cc(CNCCOCCOCCNCc3ccc4ccccc4c3)ccc2c1`, the GI50 is inactive: 1.59 µM.

As to `Cc1cc(O)nc2c3c(ccc12)OC(C)(C)C=C3`, the GI50 is inactive: 8.18 µM.

For `COc1ccc(-c2cc(=O)c3c(O)c(OC)c(O)cc3o2)cc1O`, the GI50 is inactive: 11.6 µM.
